Consider 110 sequences from the supplement of paper PMC4166925.

± gives the standard deviation of the averaged measurements. Over roughly 33,000 sequences, “E-score (dimensionless, -0.5 to 0.5)” has its median near -0.049; the highest 2% begin near 0.37. Some of the results follow.

This test deals with T1, PmTbr T-box DNA-binding domain (GST fusion).
T1 sequence: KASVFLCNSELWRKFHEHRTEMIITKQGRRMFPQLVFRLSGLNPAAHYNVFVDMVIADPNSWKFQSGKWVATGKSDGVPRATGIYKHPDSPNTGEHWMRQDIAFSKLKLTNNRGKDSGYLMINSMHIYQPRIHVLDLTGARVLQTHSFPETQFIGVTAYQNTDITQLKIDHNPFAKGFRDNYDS
As to the kind of experiment: PBM E-score of 8-mer (E-score (dimensionless, -0.5 to 0.5)); Tbr is Tbrain of the sea star Patiria miniata (Pm) or the sea urchin Strongylocentrotus purpuratus (Sp); higher = stronger binding preference; most listed sequences are background and not binding sites. The following applies: the construct has about 5 more residues each side. The method in brief: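 Using the Universal PBM Analysis Suite, every ungapped 8-mer received an enrichment E-score averaged over duplicate arrays. Probe intensities came from double-stranded Universal Agilent oligonucleotide arrays incubated with 200 nM GST-fused Tbr T-box DNA-binding domain in PBS (pH 7.5). That protein was expressed in BL21 E. coli at 20 °C and purified by glutathione affinity chromatography.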
As for GCCTGAAA, the “PBM E-score of 8-mer” value is -0.0829 ± 0.0037.

For the sequence GCGCACCC, the “PBM E-score of 8-mer” value came to 0.126 ± 0.062.

As for ACACACGG, the “PBM E-score of 8-mer” value was -0.0763 ± 0.019. In the case of AACCGACC, the “PBM E-score of 8-mer” value was found to be 0.101 ± 0.057. For the sequence GAATAACC, the “PBM E-score of 8-mer” value was -0.203 ± 0.031. Next, ATGCTGAG: -0.156 ± 0.081; CAACGCAG: 0.0396 ± 0.037; ACTGGTCT: -0.327 ± 0.025. Next, CGCAGTTA: 0.045 ± 0.0081; AATAAGCC: -0.234 ± 0.074. As to CCGCCTGA, the “PBM E-score of 8-mer” value is -0.318 ± 0.05. In the case of ATGAGCAT, the “PBM E-score of 8-mer” value is -0.153 ± 0.016. Next, CAGGTTTA: -0.00129 ± 0.013; AGCGATGA: 0.0218 ± 0.011; ATGAGAAA: -0.182 ± 0.17. Next, TAAGACGA: -0.111 ± 0.062; CAGATATC: -0.0709 ± 0.075; ACGGTGCC: 0.158 ± 0.032. Next, ACAAAGTC: 0.0973 ± 0.012. Consider ACTAGACT, for which the “PBM E-score of 8-mer” value is -0.0775 ± 0.062. Next, AGTGTCAA: 0.447 ± 0.0063. Next, ACCTAGGT: 0.294 ± 0.029.

As to CCCGCACG, the “PBM E-score of 8-mer” value was found to be 0.0427 ± 0.056.

For the sequence CCGCTGAC, the “PBM E-score of 8-mer” value worked out at 0.079 ± 0.045. Turning to AGTGAAAA, the “PBM E-score of 8-mer” value turned out to be 0.134 ± 0.11.

Consider GAATCACC, for which the “PBM E-score of 8-mer” value is 0.0704 ± 0.032. Next, GTATCGCA: 0.209 ± 0.0043. Next, CGGGACCG: -0.137 ± 0.0073; ATATGTAA: -0.152 ± 0.0082. Turning to ATAATGGG, the “PBM E-score of 8-mer” value is -0.149 ± 0.033. As for CAAGATAA, the “PBM E-score of 8-mer” value was -0.307 ± 0.004. Next, CGGACGAC: -0.294 ± 0.061; ACTCCGTA: -0.132 ± 0.018; AGACCAGC: -0.0256 ± 0.059. Next, AGAGATCA: -0.0989 ± 0.0019; CTGTAATC: -0.0671 ± 0.092; ATCGAAAT: -0.0394 ± 0.029.

For the sequence ACGGAACT, the “PBM E-score of 8-mer” value is -0.0989 ± 0.021. On to CAAGTTCG, for which the “PBM E-score of 8-mer” value amounted to 0.0993 ± 0.029. Next, ATCGACTA: 0.0954 ± 0.04; CAAGATGA: -0.0147 ± 0.081. Next, ACCCAAGG: -0.125 ± 0.053; TAACGGGA: 0.169 ± 0.017; TATCAGCA: 0.0271 ± 0.025.

As to GCTCCGAC, the “PBM E-score of 8-mer” value stood at 0.0555 ± 0.055.

ATTCTGCA: the “PBM E-score of 8-mer” value is -0.137 ± 0.064. Next, ATCTGGGC: -0.0886 ± 0.12; ATGCGCCA: 0.017 ± 0.011. Take AGACGTTC: the “PBM E-score of 8-mer” value was -0.0953 ± 0.046. Next, ACCTAAAG: 0.121 ± 0.072; CCAAACCG: 0.0892 ± 0.027; GTCAAGAC: 0.135 ± 0.0076.

Consider GACCGCAC, for which the “PBM E-score of 8-mer” value is -0.0153 ± 0.014. Next, CTTATCGC: 0.16 ± 0.018; TGGCACCA: 0.377 ± 0.0055. Next, ACGGTTCC: -0.119 ± 0.0017. Next, ATTGTGGG: 0.0127 ± 0.025; GCAGTCCA: -0.00679 ± 0.0092; AGCGCGAT: 0.291 ± 0.0076. Turning to AAGGTCTG, the “PBM E-score of 8-mer” value was -0.0553 ± 0.035.

As for ATTTCGCA, the “PBM E-score of 8-mer” value amounted to 0.378 ± 0.0045. Next, CCAATTCG: 0.0374 ± 0.038; AGTAAGCC: -0.135 ± 0.0042; CGTAAGTA: 0.176 ± 0.0052. Next, AGATAAGC: -0.0465 ± 0.04. For CTCACATC, the “PBM E-score of 8-mer” value was 0.3693 ± 0.0021. Next, CCCAAAGG: -0.114 ± 0.067. Next, AGGGAGAA: -0.0325 ± 0.042; CAACCAAA: -0.0758 ± 0.01; ACAAGTAG: 0.16 ± 0.052. Next, AACTCTAC: 0.118 ± 0.07; CCACTACA: -0.0197 ± 0.026. As to CCTCTTAA, the “PBM E-score of 8-mer” value is -0.115 ± 0.057. Next, CATTGCTA: -0.0364 ± 0.011. On to AAATGCGC, for which the “PBM E-score of 8-mer” value was found to be 0.142 ± 0.023. Next, GTGCAATA: 0.195 ± 0.0037; AACCGTTA: 0.0466 ± 0.0096. GACCCATA: the “PBM E-score of 8-mer” value is -0.236 ± 0.058. Next, GATAATGA: -0.0927 ± 0.0056; AGGTGTCC: 0.45 ± 0.0092; AAGAAAGT: -0.0301 ± 0.18. Next, CATCGTAA: -0.18 ± 0.048. For ACTCTATA, the “PBM E-score of 8-mer” value was determined as 0.0175 ± 0.018. Next, GGTCATCA: -0.0206 ± 0.077; ACTCACGC: 0.244 ± 0.029; CCTGAGAC: -0.195 ± 0.064. Next, ACGATCGG: 0.0124 ± 0.13; CGCCGTTC: -0.0039 ± 0.009. Turning to CATATATA, the “PBM E-score of 8-mer” value was -0.244 ± 0.097. Next, GAGCTACA: 0.037 ± 0.017; AGGGACCC: -0.0956 ± 0.013. Next, AGTAAAGC: -0.189 ± 0.033; TCCTTTCA: -0.0321 ± 0.055.

For AACAGGAC, the “PBM E-score of 8-mer” value is -0.0105 ± 0.002. Next, AACCGCCG: -0.11 ± 0.015; AGACAATG: -0.125 ± 0.066. Next, CGCTCAGA: -0.0805 ± 0.018; CCTTCGGA: -0.0659 ± 0.042; AACTGCCA: 0.105 ± 0.01. Next, AGCGCATA: 0.0418 ± 0.028; CTTAGGTC: -0.168 ± 0.013; AGCATACG: -0.02 ± 0.06. Regarding ATCCCACG, the “PBM E-score of 8-mer” value was -0.0853 ± 0.066.

Consider CCTATAGC, for which the “PBM E-score of 8-mer” value is -0.125 ± 0.021. Next, ACGTCATA: -0.0623 ± 0.081; CTAATATC: -0.139 ± 0.035; GCCAGATA: -0.105 ± 0.0025. Next, CCGTCAGC: 0.202 ± 0.0074; ACCATCAA: -0.121 ± 0.008. Next, CTCACTAA: 0.169 ± 0.038.
